Data on 94 sequences can be found in the supplement of paper PMC3334620.

Over roughly 33,000 sequences, “E-score (-0.5 to 0.5)” has its median near -0.035; the highest 2% begin near 0.35. The list shows a part of the results.

For the assay, the target named is T1, Pdr3 (UniProt P33200).
T1 sequence: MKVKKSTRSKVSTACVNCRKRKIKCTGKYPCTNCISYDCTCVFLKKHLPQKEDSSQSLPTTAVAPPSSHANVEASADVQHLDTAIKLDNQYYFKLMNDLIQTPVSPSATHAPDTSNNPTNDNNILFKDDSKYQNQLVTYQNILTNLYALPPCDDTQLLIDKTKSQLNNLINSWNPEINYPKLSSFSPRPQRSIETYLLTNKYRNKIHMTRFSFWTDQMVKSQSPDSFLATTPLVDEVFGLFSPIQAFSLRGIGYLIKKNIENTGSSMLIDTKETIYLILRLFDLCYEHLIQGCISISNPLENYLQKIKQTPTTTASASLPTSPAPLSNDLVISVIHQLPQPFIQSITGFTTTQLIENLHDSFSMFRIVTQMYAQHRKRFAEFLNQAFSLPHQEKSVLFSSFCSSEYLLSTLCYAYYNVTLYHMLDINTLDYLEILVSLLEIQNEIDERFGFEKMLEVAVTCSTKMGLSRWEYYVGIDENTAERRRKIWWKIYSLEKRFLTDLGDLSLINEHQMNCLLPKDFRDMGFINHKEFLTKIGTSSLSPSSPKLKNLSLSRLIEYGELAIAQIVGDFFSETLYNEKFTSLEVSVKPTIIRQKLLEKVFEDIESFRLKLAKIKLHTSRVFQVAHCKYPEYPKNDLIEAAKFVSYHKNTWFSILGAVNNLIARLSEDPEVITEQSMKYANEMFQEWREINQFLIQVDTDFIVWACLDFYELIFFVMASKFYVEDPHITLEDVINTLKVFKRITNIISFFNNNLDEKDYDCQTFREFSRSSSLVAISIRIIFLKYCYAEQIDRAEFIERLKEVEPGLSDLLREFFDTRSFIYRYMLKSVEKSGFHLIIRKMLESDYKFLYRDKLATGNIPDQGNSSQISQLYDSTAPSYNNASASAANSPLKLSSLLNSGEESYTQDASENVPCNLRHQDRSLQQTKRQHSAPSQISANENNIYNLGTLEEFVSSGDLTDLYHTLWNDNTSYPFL
Put plainly: PBM E-score (8-mer binding enrichment) (E-score (-0.5 to 0.5)); higher = stronger / more preferred TF binding; most listed sequences are background and not binding sites. To be noted: protein concentration: 200 nM; construct: GST-full length. Put shortly:
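Masliner-normalised scans of fluorescent anti-GST signal were the basis for scoring. That signal came from GST-tagged yeast transcription factors applied at about 100-200 nM to double-stranded universal all-10-mer Agilent arrays on fresh or once-stripped slides. Each ungapped eight-base word, pooled with its reverse complement, received an E-score from the Universal PBM Analysis Suite.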
As for GCTCGCCA, the “PBM E-score” value worked out at 0.0845. For the sequence ACTGGTAA, the “PBM E-score” value was -0.0923. For CAAGGGTA, the “PBM E-score” value is -0.0929. For CGATTGTA, the “PBM E-score” value was found to be 0.176.

As to ATTGCCTC, the “PBM E-score” value was -0.0698. For AACACACG, the “PBM E-score” value is -0.0967. With TGCACCAA, the “PBM E-score” value is -0.266. In the case of TATGTTCA it was -0.00143; in that of AGGCTGCC, -0.0546. Turning to CATACACC, the “PBM E-score” value stood at 0.0203. As for AACGTTGA, the figure is -0.0102. As for AGAGTTGC, the figure is 0.0698. Take GGAAACAC: the “PBM E-score” value is 0.24. In the case of ACGTGGCT it was -0.229. As for GCAAGGCA, the “PBM E-score” value was -0.0599. On to CTCGATTA, for which the “PBM E-score” value worked out at 0.0957. As to CGGGCGTC, the “PBM E-score” value came to 0.193. As for CGGAGAGC, the figure is 0.229; as for AGCTAAAT, -0.165; as for ATATGGCC, -0.00463. As to GAAAACTA, the “PBM E-score” value is 0.0457. In the case of AAGCAAAG it was -0.213.

For AGATGCCC, the “PBM E-score” value came out at 0.0401.

Regarding CTGTGTCA, the “PBM E-score” value was -0.129.

Take GCAGTAGA: the “PBM E-score” value is -0.197. As for ACTTTCTG, the figure is -0.0394; as for CGACGAAC, 0.0233. In the case of CGCTTATA it was 0.0823. As for CGTCTTTC, the figure is -0.0524; as for CTCTCCAC, -0.27; as for ACGTTTCT, -0.289. As to GCGAATGA, the “PBM E-score” value was 0.172. As for AATCCAAC, the “PBM E-score” value is -0.0551.

As to ACGACCCT, the “PBM E-score” value is -0.14. In the case of CACCTCTG it was -0.259; in that of AGGTGGTA, 0.135. As for CCTATTAC, the “PBM E-score” value is -0.104.

CGCGATCA: the “PBM E-score” value amounted to 0.103. Turning to AGACTCCC, the “PBM E-score” value was -0.221. Turning to TGCCTCAA, the “PBM E-score” value turned out to be 0.107.

For ACCGCGGC, the “PBM E-score” value came out at 0.399.

For the sequence CAACCTGC, the “PBM E-score” value is 0.0438.

For ACTACCGC, the “PBM E-score” value was -0.0625. In the case of AAGGCTCG, the “PBM E-score” value was -0.352.

For CCCTTCGG, the “PBM E-score” value came to 0.223. Take AGACTCCT: the “PBM E-score” value is -0.238.

Consider ATCTAGGC, for which the “PBM E-score” value is -0.205.

For TCACGAAA, the “PBM E-score” value came out at 0.0507.

Consider CGCCGGCC, for which the “PBM E-score” value turned out to be 0.32. As for ACGCTTCG, the figure is 0.00401; as for CACTCCAC, -0.0684. In the case of CTGAGCAA, the “PBM E-score” value was -0.16. As for CCTTGCAC, the figure is -0.0514. Consider ATCCATGA, for which the “PBM E-score” value was -0.183. Regarding CAGGACCA, the “PBM E-score” value was -0.00068.

CCGTGGCC: the “PBM E-score” value is 0.147.

CTGAAAAG: the “PBM E-score” value is -0.119. On to GAACGTTC, for which the “PBM E-score” value is 0.137. In the case of GAGCGTAC it was -0.159; in that of ATTGCCAC, 0.00844; in that of AGCGATTA, 0.0475.

Take AGCCGAAG: the “PBM E-score” value is -0.0178.

ATCCTAGG: the “PBM E-score” value was -0.0164. In the case of CCTACAGA it was -0.271; in that of ACCCCGGT, 0.186; in that of CTGGAGCC, -0.0125. As for AATGGGGT, the figure is -0.00305. In the case of CGTAGTTC it was -0.0922; in that of GGTTAAAC, -0.0501; in that of ATTTGGGC, -0.117. Consider GCCGAGGC, for which the “PBM E-score” value was 0.278. As for CGAGCACG, the figure is 0.0822; as for AGCGAGAT, 0.0494. As for CTTAAGGC, the “PBM E-score” value is -0.0846. As for ATCGCTTC, the figure is 0.0282.

For the sequence GCAAACCA, the “PBM E-score” value was -0.0644. In the case of GACGTCTC, the “PBM E-score” value is -0.145. Regarding GAGTGAAA, the “PBM E-score” value worked out at 0.00784. As for TCCAACCA, the figure is -0.111.

Regarding ATCTAGGG, the “PBM E-score” value is -0.252. In the case of ATCGTGCC it was 0.122; in that of CAGATCTC, -0.0129; in that of AGGCTCCC, -0.125. AGCACACC: the “PBM E-score” value was -0.0132. In the case of AACCAAAC it was -0.105. As for ACCAAAAA, the figure is 0.172; as for ATTTAGGC, -0.0454. On to CGAGGATA, for which the “PBM E-score” value is -0.0668. Take ATCGTGGA: the “PBM E-score” value worked out at 0.0124.

As for GAAGCGAC, the “PBM E-score” value was found to be 0.133. As for AAGCCTAT, the figure is -0.091; as for CTGCAGGC, -0.094.

On to GCTAAACA, for which the “PBM E-score” value is -0.144. For CTATGCCA, the “PBM E-score” value was -0.283.
